# Test results from patent publication US20110033389A1 (published 2011).
# Read-outs that look alike come from different tables or passages of the source.
# B1: AC8scFvTAT2B (scFv)
# scFv: [sequence of about 100 residues omitted]GGSSRSSSSGGGGSGGGGQVQLVQSGAEVKKPGSSVKVSCKASGGSFSSYAINWVRQAPGQGLEWMGGLMPIFGTTNYAQKFQDRLTITADVSTSTAYMQLSGLTYEDTAMYYCARVAYMLEPTVTAGGLDVWGQGTTVTVSSASTKGGQAGQHHHHHHGAYPYDVPDYASGGKRRKRNPRRR
# B2: AC8scFvTATscrambled (scFv)
# scFv: [sequence of about 100 residues omitted]GGSSRSSSSGGGGSGGGGQVQLVQSGAEVKKPGSSVKVSCKASGGSFSSYAINWVRQAPGQGLEWMGGLMPIFGTTNYAQKFQDRLTITADVSTSTAYMQLSGLTYEDTAMYYCARVVADYLMGLGEAPTTVWGQGTTVTVSSASTKGGQAGQHHHHHHGAYPYDVPDYASRGRKKRRQRRR
# notes: Control antibody; also called CDR3 scrambled antibody
# What was measured:
# [1] = target: T1, glycoprotein D of Herpes simplex virus, on HSV-1 virus (Herpes simplex virus (HSV-1 virus in …)); assay: cell-based or functional assay
# [2] = target: T1, glycoprotein D of Herpes simplex virus, …; assay: cell-based or functional assay; remark: listed apart in the source
# [3] = target: T1, glycoprotein D of Herpes simplex virus, …; assay: cell-based or functional assay; remark: listed apart in the source
# [4] = target: T1, glycoprotein D of Herpes simplex virus, …; assay: stated for the negative control in Example 8; no direct binding assay described; no inhibition in plaque assays
# [5] = target: T1, glycoprotein D of Herpes simplex virus, …; assay: cell-based or functional assay; remark: listed apart in the source
Binder,"ED50; plaque reduction assay, HSV-1 neutralization in solution [1]","ED50 against HSV-1 infection; virus prevention assay (cells pre-treated with antibody, washed, then HSV-1) [1]",Plaque Reduction Rate Percentage (Average plaque number per plate) at 0.008 µg/ml; HSV-1 neutralization in solution [2],Plaque Reduction Rate Percentage (Average plaque number per plate) at 0.04 µg/ml; HSV-1 neutralization in solution [2],Plaque Reduction Rate Percentage (Average plaque number per plate) at 0.2 µg/ml; HSV-1 neutralization in solution [2],Plaque Reduction Rate Percentage (Average plaque number per plate) at 1 µg/ml; HSV-1 neutralization in solution [2],Plaque Reduction Rate Percentage (Average plaque number per plate) at 5 µg/ml; HSV-1 neutralization in solution [2],"Plaque Reduction Rate Percentage (Average plaque number per plate) at 0.2 µg/ml; virus prevention assay (cells pre-treated with antibody, washed, then HSV-1) [3]","Plaque Reduction Rate Percentage (Average plaque number per plate) at 0.6 µg/ml; virus prevention assay (cells pre-treated with antibody, washed, then HSV-1) [3]","Plaque Reduction Rate Percentage (Average plaque number per plate) at 1.9 µg/ml; virus prevention assay (cells pre-treated with antibody, washed, then HSV-1) [3]","Plaque Reduction Rate Percentage (Average plaque number per plate) at 5.6 µg/ml; virus prevention assay (cells pre-treated with antibody, washed, then HSV-1) [3]","Plaque Reduction Rate Percentage (Average plaque number per plate) at 16.7 µg/ml; virus prevention assay (cells pre-treated with antibody, washed, then HSV-1) [3]","Plaque Reduction Rate Percentage (Average plaque number per plate) at 50 µg/ml; virus prevention assay (cells pre-treated with antibody, washed, then HSV-1) [3]",binding result [4],"Plaque Reduction Rate Percentage (Average plaque number per plate) at 0.2 µg/ml; virus prevention assay (cells pre-treated with antibody, washed, then HSV-1) [5]","Plaque Reduction Rate Percentage (Average plaque number per plate) at 0.6 µg/ml; virus prevention assay (cells pre-treated with antibody, washed, then HSV-1) [5]","Plaque Reduction Rate Percentage (Average plaque number per plate) at 1.9 µg/ml; virus prevention assay (cells pre-treated with antibody, washed, then HSV-1) [5]","Plaque Reduction Rate Percentage (Average plaque number per plate) at 5.6 µg/ml; virus prevention assay (cells pre-treated with antibody, washed, then HSV-1) [5]","Plaque Reduction Rate Percentage (Average plaque number per plate) at 16.7 µg/ml; virus prevention assay (cells pre-treated with antibody, washed, then HSV-1) [5]","Plaque Reduction Rate Percentage (Average plaque number per plate) at 50 µg/ml; virus prevention assay (cells pre-treated with antibody, washed, then HSV-1) [5]"
B1,~0.2 µg/mL,5.2 µg/mL,0%,0%,42%,95%,100%,0%,0%,4%,55%,93%,99%,,,,,,,
B2,,,,,,,,,,,,,0%,no binding,3%,0%,0%,0%,0%,3%
